Among all 110,000 compounds or so, about 20 (0.02%) were called active. The inconclusive results got no clear call from the source; some entries with a clear call stand among them for comparison. Calls come from the whole dose curve; as a rule, active = well fitted activation curve with a large enough effect; inconclusive = small, poorly fitted or top-dose-only effect; inactive = no such curve, though single readings can be large or run the other way. No potency is given beside an inconclusive call; the fits are too rough.
Assay: qHTS Assay for Compounds that Induce Erasure of Genomic Imprints;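 for activity change, positive = activation: 0% = negative control wells on the plate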
Details: mouse ES Peg3-LacZ reporter, beta-gal luminescence, 40 h; activity change, positive = activation: at 10.9 µM (top of the series) unless noted
In short: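 Each well holds 300 Peg3LacZ-Neo (maternal) female ES cells incubated 40 h at 37C, 5% CO2. LacZ is measured by BetaGlo luminescence, with AC50 and maximum efficacy derived from dose-response curves.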
Potency is the fitted concentration of half-maximal effect; tags give direction and shape of the fitted curve.

Compound	Potency	activity change, positive = activation
COc1ccc(CNC(=O)Cn2c(=O)oc3cc(S(=O)(=O)NCc4ccccc4)ccc32)cc1	inactive	
COc1ccc2nc(C)cc(C(=O)O)c2c1	inconclusive [activator, single point]	
COc1cccc(Cn2nnc(C(=O)NCc3ccc(Cl)cc3Cl)c2N)c1		inconclusive: 30.7% [activator]
CC(C)[C@]1(Cl)CC[C@@H]2[C@]3(C)CCC[C@@](C)(C(=O)O)[C@H]3C[C@H](Cl)[C@@]2(Cl)[C@H]1Cl	inconclusive [activator, single point]	
CCOC(=O)c1ccc(N2CCN(c3cc(C)ccc3C)CC2)c(NC(=O)Nc2ccc(Cl)cc2)c1		inconclusive: 41.7% [activator]
COc1ccccc1CNc1ncnc2c1nnn2Cc1ccccc1	inactive	
O=C(O)CNC(=O)c1ccc([N+](=O)[O-])cc1	inactive	
CCOc1ccccc1NC(=O)Cn1c(=O)ccc2cc(S(=O)(=O)N3CCCC3)ccc21		inconclusive: 35.3% [activator]
Cc1c(NC(=O)CN2CC(C)OC(C)C2)c(=O)n(-c2ccccc2)n1C (configuration not stated)	inconclusive [activator, full curve, poor fit]	
CCOC(=O)c1oc2ccc(S(=O)(=O)n3nc(-c4ccc(Br)cc4)cc3N)cc2c1C		inconclusive: 180% [activator]
Cc1ccccc1NS(=O)(=O)c1ccc(C2CNC(=O)C2)cc1 (configuration not stated)	inconclusive [activator, single point]	
Cc1cccc(-n2ncc3c(Nc4ccc(C)c(Cl)c4)ncnc32)c1		inconclusive: 78.7% [activator]
O=C(Nc1ccc(S(=O)(=O)Nc2ncccn2)cc1)c1cc(=O)c2ccccc2o1		inconclusive: 31.4% [activator]
Cc1cn([C@H]2C[C@@H](N=[N+]=[N-])[C@@H](CO)O2)c(=O)[nH]c1=O	inconclusive [activator, partial curve]	
Cc1ccc2nc(COc3ccccc3NC(=O)C(C)(C)C)cc(=O)n2c1		inconclusive: 161% [activator]
COc1cccc(CNC(=O)c2ccc(-c3nc(COc4ccccc4)c(C)o3)cc2)c1		inconclusive: 58% [activator]
Cc1nnsc1NC(=O)OCC(C)C	inactive	
CCOC(=O)c1sc(NC(=O)c2ccco2)nc1C	inactive	
CCCCOc1ccc(S(=O)(=O)n2c(C)nc3ccccc32)cc1	inactive	
CN(C)c1ncc2nc(-c3cc(F)cc(F)c3)c(=O)n(C)c2n1	inconclusive [activator, single point]	
N[C@@H](Cc1cccc([N+](=O)[O-])c1)C(=O)O	inconclusive [activator, single point]	
CCOc1cccc(C(=O)Nc2nc3c(s2)CC(C(C)(C)C)CC3)c1 (configuration not stated)	inactive	
Cc1ccc(C(=O)Nc2c(C)nc3ccccn3c2=O)cc1C	inactive	
O=C(COc1ccc(Cl)cc1)OCc1cc(=O)n2nc(C3CC3)sc2n1		inconclusive: 45.2% [activator]

Compound	Potency	activity change, positive = activation
CN(C)c1ncc2nc(CCc3ccccc3)c(=O)n(CCC#N)c2n1	inconclusive [activator, full curve, poor fit]	
CCCn1c(=O)c2ccccc2n2c(SCC(=O)NCc3cccs3)nnc12	inactive	
Cc1ccc(-n2c(=O)c3c(c4cc(C)ccc4n3C)n(CC(=O)c3ccc(Cl)cc3)c2=O)cc1		inconclusive: 43.4% [activator]
CCOC(=O)c1[nH]c2ccc(OCC)cc2c1NC(=O)CN1CCN(c2ccccc2)CC1	inconclusive [activator, single point]	
O=C(COc1ccccc1Cl)N1CCN(c2ncccn2)CC1	inactive	
CCOc1cccc(-c2nnc(SCC(=O)Nc3ccc(OC)c(OC)c3)n2N)c1	inconclusive [activator, single point]	
CCC1CCCCN1C(=O)CSc1nnc(CNC(=O)c2ccco2)o1 (configuration not stated)	inconclusive [activator, single point]	
COc1cc2c(C(=O)NCc3ccccn3)cn(C)c(=O)c2cc1OC	inactive	
COc1ccc2cc(C(=O)CCC(=O)O)ccc2c1	inactive	
CCCCCCCCCCCCCCCCCC(=O)OC(CC(=O)O)C[N+](C)(C)C (configuration not stated)	inactive	
CCCNC(=O)N1[C@H](c2cccs2)[C@@H](C)C(=O)[C@@H](C)[C@@H]1c1cccs1		inconclusive: 33% [activator]
C[C@]12CCC3c4ccc(OCC(=O)O)cc4CCC3C1CCC2=O (some centres not stated)	inconclusive [activator, single point]	
CC(=O)N(C)C1(c2nnnn2CCOC(=O)Nc2cccc3ccccc23)CCCC1	inconclusive [activator, single point]	
Cc1ccc(N(CC(=O)N2CCN(c3cccc(Cl)c3)CC2)S(=O)(=O)c2c(C)noc2C)cc1		inconclusive: 50.1% [activator]
COc1ccccc1NC(=O)CSc1nc(O)c(C/C=C/c2ccccc2)c(=O)[nH]1	inactive	
COc1ccc(CNC(=O)c2nc(SCc3ccc(C)cc3)ncc2Cl)cc1	inactive	
Cc1nc(NCCc2cnc[nH]2)c2oc3ccccc3c2n1	inactive	
COc1ccc(C2=C(Nc3ccc(Br)c(C)c3)c3ccccc3C2=O)cc1	inactive	
COCCn1ccc2c(OCC(=O)Nc3c(C)cc(C)cc3C)cccc2c1=O		inconclusive: 39.9% [activator]
COc1cccc(-c2cc(C(=O)Nn3cnnc3)c3ccccc3n2)c1	inactive	
CC(C)Oc1ccc(CNC(=O)c2ccc3nc(SCc4ccc(F)cc4)n(C)c3c2)cc1		inconclusive: 38.1% [activator]
COc1cccc(N2CCN(C(=O)c3ccc(CS(=O)c4cccc(Cl)c4)o3)CC2)c1 (configuration not stated)	inactive	
CC1(C)CCC[C@@](C)([C@H]2CC[C@]3(C)[C@@H]2[C@H](O)C[C@@H]2[C@@]4(C)CC[C@H](O)C(C)(C)[C@@H]4[C@@H](O)C[C@]23C)O1	inconclusive [activator, single point]	

Source: PubChem BioAssay AID1948 (National Center for Advancing Translational Sciences (NCATS), 2009)
